The source of these data is US12448423 (Xencor, dated 2025).

The test has as its target T1, HIS-tagged human NKG2D (human, UniProt P26718 73-216, limits assumed).
T1 construct: Captured on HIS1K biosensors; not shown: HIS tag
T1 sequence (looked up): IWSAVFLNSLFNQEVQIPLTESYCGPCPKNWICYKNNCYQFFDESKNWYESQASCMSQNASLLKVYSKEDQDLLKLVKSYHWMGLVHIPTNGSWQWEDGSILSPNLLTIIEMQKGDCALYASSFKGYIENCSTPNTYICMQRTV
The test is described as follows: Octet (BLI): HIS-tagged human NKG2D captured on HIS1K biosensors, dipped into multiple concentrations of the fusion; global fit, 1:1 Langmuir model. In general terms: In BLI a coated tip is dipped into the sample, and binding shifts an interference pattern.

A word on the Kd: it is the equilibrium constant for the complex coming apart. Read a high Kd as weaker binding. In general, koff refers to the rate constant with which the complex falls apart. Low readings indicate a long-lived complex, high ones a short-lived complex. Broadly, the kon is a measure of how fast the partners come together. Read a high kon as faster complex formation.

B1: XENP27195 (Fc fusion)
chain 1: ITCPPPMSVEHADIWVKSYSLYSRERYICNSGFKRKAGTSSLTECVLNKATNVAHWTTPSLKCIRGGGGSGGGGSGGGGSGGGGSGGGGS[omitted - about 120 residues]EPKSSDKTHTCPPCPAPPVAGPSVFLFPPKPKDTLMISRTPEVTCVVVDVKHEDPEVKFNWYVDGVEVHNAKTKPREEEYNSTYRVVSVLTVLHQDWLNGKEYKCKVSNKALPAPIEKTISKAKGQPREPQVYTLPPSREEMTKNQVSLTCDVSGFYPSDIAVEWESDGQPENNYKTTPPVLDSDGSFFLYSKLTVDKSRWEQGDVFSCSVMHEALHNHYTQKSLSLSPGK
chain 2: QVQLVESGGGLVKPGGSLRLSCAASGFTFSSYGMHWVRQAPGKGLEWVAFIRYDGSNKYYADSVKGRFTISRDNSKNTKYLQMNSLRAEDTAVYYCAKDRGLGDGTYFDYWGQGTTVTVSSASTKGPSVFPLAPSSKSTSGGTAALGCLVKDYFPEPVTVSWNSGALTSGVHTFPAVLQSSGLYSLSSVVTVPSSSLGTQTYICNVNHKPSNTKVDKKVEPKSCDKTHTCPPCPAPPVAGPSVFLFPPKPKDTLMISRTPEVTCVVVDVKHEDPEVKFNWYVDGVEVHNAKTKPREEQYNSTYRVVSVLTVLHQDWLNGKEYKCKVSNKALPAPIEKTISKAKGQPREPQVYTLPPSREQMTKNQVKLTCLVKGFYPSDIAVEWESNGQPENNYKTTPPVLDSDGSFFLYSKLTVDKSRWQQGNVFSCSVMHEALHNHYTQKSLSLSPGK
chain 3: QSALTQPASVSGSPGQSITISCSGSSSNIGNNAVNWYQQLPGKAPKLLIYYDDLLPSGVSDRFSGSKSGTSAFLAISGLQSEDEADYYCAAWDDSLNGPVFGGGTKLTVLGQPKAAPSVTLFPPSSEELQANKATLVCLISDFYPGAVTVAWKADSSPVKAGVETTTPSKQSNNKYAASSYLSLTPEQWKSHRSYSCQVTHEGSTVEKTVAPTECS
notes: scIL-15/Rα x Fab format; also called NKG2D(KYK-2.0)-targeted IL-15(N4D/N65D)/Rα-Fc
As for B1, binding was put at a Kd of 3.65 nM, the koff is 0.00272 s⁻¹ and the kon turned out to be 745000 M⁻¹ s⁻¹.
